Experimental data reported in PubChem BioAssay AID1508623 (National Center for Advancing Translational Sciences (NCATS), 2021).
The whole screen tested about 48,000 compounds, of which about 450 (0.94%) were called active. Another 19% or so got no clear call; they are omitted. Calls come from the whole dose curve; as a rule, active = well fitted inhibition curve with a large enough effect; inconclusive = small, poorly fitted or top-dose-only effect; inactive = no such curve, though single readings can be large or run the other way. The list shows a part of the results.

Experiment: Primary qHTS for Identification of Small Molecule Inhibitors of Huntingtin Promoter Activity; note: nearly all actives have a fitted effect of over 50% in size
Details: HEK293 HTT promoter firefly luciferase reporter (activity 0% = vehicle and -100% = no light), 24 h; series mostly up to 57.5 µM; activity change, negative = inhibition: at the top concentration
Outline: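 HEK293 cells carrying firefly luciferase reporters were seeded at 2,500 per well in Opti-MEM and cultured for 24 h. They were then treated with compounds at up to 57.5 uM final for 24 h at 37 degrees C before Dual-Glo luminescence readout.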

Activity change, negative = inhibition, inactive:
COc1ccc(CN2C(=O)c3oc4ccc(F)cc4c(=O)c3C2c2ccc(O)cc2)cc1 (stereo not given) -2.93%
CCOc1ccc(NC(=O)CCC(=O)N2CC(C)Oc3ccc(C)cc32)cc1 (stereo not given) -23%
O=C(/C=C/c1ccccc1)NCCO -0.382%
Cc1nc(N2CCOCC2)c2c(C(=O)NCCc3ccccc3)c(C)oc2n1 27%
Cc1ccc(C(=O)n2nc(-c3ccco3)nc2NCc2cccs2)cc1 -2.78%
CCOC(=O)C1CCN(S(=O)(=O)c2cc3c4c(c2)CC(=O)N4CCC3)CC1 -22.4%
CC1(C)[C@@H](OC(=O)CCC(=O)O)CC[C@]2(C)[C@H]3C(=O)C=C4[C@@H]5C[C@@](C)(C(=O)O)CC[C@]5(C)CC[C@@]4(C)[C@]3(C)CC[C@@H]12 8.44%
O=C(NCCc1ccccc1)C1(c2cccs2)CCOCC1 -7.38%
CN(C)S(=O)(=O)n1cc(/C=C(\NC(=O)c2ccccc2Cl)C(=O)NCCCn2ccnc2)c2ccccc21 -1.35%
CCN(CC)CCNC(=O)c1nn(-c2ccc(OC)c(Cl)c2)c(=O)c2c1c1ccccc1n2C 7.61%
O=C(CSc1nc2c(c(=O)[nH]1)CN(Cc1ccc(F)cc1)CC2)Nc1ccccc1Cl -21.1%
O=C(NCCc1ccccc1Cl)c1ccc2c(c1)nc1n2CCOC1 22.8%
COc1cccc(C(=O)N2c3nc(-c4ccco4)nn3C3(CCCCC3)[C@@H]3CCCC[C@@H]32)c1 -33.4%
CCCNC(=O)c1c(C)nn(-c2cccc(C)c2)c1-n1cccc1 -26.4%
CCOc1ccccc1CNCCNC(=O)c1nonc1N -6.78%
Cc1ccc2ncc3c(-c4ccc(F)cc4)nn(-c4cccc(F)c4)c3c2c1 -22.8%
Cc1ccc2c(c1)c1c(c(=O)n(-c3ccccc3C)c(=O)n1CC(=O)N1CCCC1)n2C -12.2%
Cc1ccccc1S(=O)(=O)Cc1ccc(C(=O)NC2CCC(C)CC2)o1 (stereo not given) -9.24%
Cc1ccc(CNC(=O)C2CCN(S(=O)(=O)c3ccc4[nH]c(=O)ccc4c3)CC2)cc1 -6.5%
Cc1nc2nc[nH]n2c(=O)c1CCC(=O)Nc1ccc(F)cc1 2.59%
CCC(C)NC(=O)CSc1nc2cc3c(cc2c(=O)n1CCCCCC(=O)NCc1ccc2c(c1)OCO2)OCO3 (stereo not given) -9.58%
Cc1nn(-c2ccccc2)c2c1N(CC(=O)N1CCN(c3ccc(F)cc3)CC1)C(=O)CS2 -11.4%
O=C(Cn1c(=O)n(Cc2cccs2)c(=O)c2cccnc21)Nc1ccc(F)cc1 -29.3%
COc1cccc2cc(C(=O)Nc3ccc(F)c(F)c3)c(=O)oc12 -8.43%
CCCCCSc1nnc(-c2ccc(Br)cc2)o1 40.7%
Cc1ccc(Cl)cc1-n1c(=O)c2sc3ccccc3c2n(Cc2ccccc2)c1=O -9.74%
CCOc1cc(-c2nnc(SCC(=O)NC3CCCC3)nc2-c2ccc(OC)c(OCC)c2)ccc1OC -13.8%
Nc1ncnc(Nc2ccccc2)n1 15%
CC(C)CCN1C(=O)c2ccccc2CC1(C)C(=O)NC1CCC(C)CC1 (stereo not given) -7.22%
CC(C)c1ccc(-c2nc(C(N)=O)c3c(n2)n(-c2ccc4c(c2)OCO4)c(=O)n3C)cc1 -7.02%
Cn1c(=O)c(Oc2ccc(F)cc2F)cc2cnc(NC3CCOCC3)nc21 -5.44%
CCOc1ccc(NC(=O)Cn2cc(S(=O)(=O)NC)c(S(=O)(=O)NC)c2)cc1 1.7%
CCOC(=O)C1=C(C)NC(=O)NC1c1cn(-c2ccccc2)nc1-c1ccc(OCC)cc1 (stereo not given) -10.9%
Cc1ccc(NC(=O)C2CCCN(c3ncnc4onc(-c5ccc(F)cc5)c34)C2)c(Cl)c1 (stereo not given) 5.62%
CCC(C)NC(=O)Cn1ccc2cc(S(=O)(=O)N3CCCCC3)ccc21 (stereo not given) -14.9%
Cc1cccc(N2CCN(C(=O)CN3C(=O)COc4ccc(S(=O)(=O)N5CCCCCC5)cc43)CC2)c1C -27.9%
CSc1ncc(C(=O)N2CCN(c3cc(C)ccc3C)CC2)c(C)n1 -22.6%
CCn1c(=N)c(C(=O)NCc2ccccc2)cc2c(=O)n3cc(C)ccc3nc21 -6.11%
CCCCNC(=O)C(Cc1ccccc1)NS(=O)(=O)c1ccc2c(c1)c(=O)n(C)c(=O)n2C (stereo not given) -8.75%
CCC1CN(C(=O)NCc2ccc(C)cc2)c2ccccc2O1 (stereo not given) -14.6%
CCOc1ccc(-c2ncnn2-c2sc3c(c2C#N)CCCCC3)cc1 -4.59% [at 11.5 µM]
Cc1cc(C)c(OCC(=O)N(Cc2ccco2)Cc2ccco2)c(C)c1 -19%
COc1ccc(Cn2ccc3nc(C)c(C(=O)Nc4cc(C)cc(C)c4)cc3c2=O)cc1 -21.4%
CSc1ncc(C(=O)Nc2c(C)cccc2C)c(-c2ccccc2)n1 -1.19%
Cc1nc2ccccc2c(=O)n1-c1ccc(NC(=O)c2cccc([N+](=O)[O-])c2)cc1 -19.2%
COc1cc(NC(=O)CN2c3ccccc3S(=O)(=O)c3ccccc32)cc(OC)c1 -1.65%
Cc1ccc(Nc2nnc(-c3ccc(C)c(S(=O)(=O)N4CCN(C)CC4)c3)c3ccccc23)cc1 -14.4% [at 11.5 µM]
COCCNC(=O)CSc1nc(-c2cc(OC)c(OC)c(OC)c2)[nH]c1-c1ccc(Cl)cc1 11%
CCOCCCn1c(SCC(=O)OCC)nc2c(sc3ccccc32)c1=O -6.33%
Cc1ccc(C(=O)CSc2nc(-c3ccccc3)nc3c2CCCC3)c(C)c1 -17.9%
CCCCn1cc(S(=O)(=O)c2ccc(OC)cc2)c(=O)c2cc(CC)ccc21 -26.7%
O=S(=O)(c1ccccc1)c1nnn2c1nc(NC1CCCCC1)c1sccc12 -7.16%
Cn1c(=O)c2c(SCC(=O)Nc3ccccc3C(F)(F)F)nc(C3CCCC3)nc2n(C)c1=O -10.2%
Cc1ccc(Cl)cc1NC(=O)Nc1nnc(N(C)Cc2ccccc2)s1 -25%
CCc1ccc(NC(=O)CN(c2ccc(C)cc2)S(=O)(=O)c2cccs2)cc1 2.85%
COc1ccc(-c2cc(C)no2)cc1S(=O)(=O)N1CCc2ccccc21 -25%
Cc1ccc(CN(C(=O)c2ccccc2)c2ccccn2)o1 -11.4%
O=C(O)CCCCn1c(SCC(=O)Nc2ccccc2C(F)(F)F)nc2ccsc2c1=O 3.56%
Cc1ccc(C(=O)Nc2ccc(S(=O)(=O)N3CCC(c4nc5ccccc5s4)CC3)cc2)cc1 -9.35%
Cc1ccc(OCC(=O)Nc2nnc(S(=O)(=O)N3c4ccccc4CC3C)s2)cc1 (stereo not given) -12.1%
